ChEMBL document CHEMBL4888484, “Replenishing the malaria drug discovery pipeline: Screening and hit evaluation of the MMV Hit Generation Library 1 (HGL1) against asexual blood stage Plasmodium falciparum ,using a nano luciferase reporter read-out” (2022)
Among all 150,000 compounds or so, about 540 (0.36%) showed an effect of 50% or more. This is one part of the list.

Each compound was assayed on Plasmodium falciparum (assay: Primary screen in NF54 nanoGlo assay, in single point, at 2uM, 72h; a lower Z score goes with more inhibition). Conditions: timepoint 72 hour.
Type: functional, Erythrocyte

Row | SMILES | % Inhibition [%] | Z score
1 | Clc1cc(CNc2ccccc2-c2ccccc2)c2c(c1)COCO2 | -8 | 1.15
2 | CCCN(CC(=O)Nc1ccc(Cl)cc1)C(=O)c1cc(C)nn1C | -14 | 1.67
3 | CCOC(=O)CNc1nc(C)cc(C)c1C#N | -18 | 2.05
4 | CC(C)(C)OC(=O)c1ccc(NC(=O)[C@H]2CCCO2)nc1 | -6 | 0.87
5 | Cc1cnc2c(cnn2CC(=O)N2CCOC[C@@H]2CC2CC2)c1 | -3 | 0.44
6 | CC(=O)Oc1c(C)cc(CN[C@@H](C)Cn2cccn2)cc1C | -10 | 1.88
7 | Cc1nsc(NC(=O)[C@H]2CCc3cnn(C)c3C2)n1 | 0 | -0.07
8 | Cc1cccc(C)c1CN(C)C(=O)NCc1cnnn1C | -10 | 1.49
9 | CCc1nnc2c(=O)n(CC(=O)NCc3ccccc3F)c3cccnc3n12 | -10 | 1.33
10 | O=C(Nc1nncs1)C1CCN(C(=O)c2ccncc2Cl)CC1 | -4 | 0.67
11 | Cn1cc(C2C[S+]([O-])CCN2C(=O)C2CC2C2CC2)cn1 (stereo unspecified) | -12 | 1.89
12 | Cc1ccc(CNC(=O)[C@H](O)C2CCCCC2)c2cccnc12 | -1 | 0.13
13 | Cc1nn(Cc2noc(C(C)(C)C)n2)c(=O)c(C#N)c1C | -3 | 0.51
14 | O=C(c1ccco1)N1CC[C@H](Oc2cc(C(F)(F)F)ccn2)C1 | -13 | 2.44
15 | CN(C)CCN(C)[C@@H]1[C@H](O)[C@H](CO)O[C@@H]1CNC(=O)Nc1ccc(OC(F)(F)F)cc1 | 30 | -3.38
16 | CC[C@H]1c2ccccc2CN1C(=O)Nc1cnn(CC2CC2)c1 | 5 | -0.92
17 | CC(C)[C@@H](CNCC(=O)NCC1CC1)CNC(=O)OC(C)(C)C | -1 | 0.1
18 | CC1(CO)CN(Cc2cc(Br)ccc2OC(F)F)C1 | -11 | 1.52
19 | Cn1nc(CN2CC[C@@](O)(CN3CCCCC3)C2)c2c(Cl)cccc21 | -2 | 0.34
20 | CCN1CCC[C@@H]1CNC(=O)c1cc(NC(C)=O)c(N(C)C)cc1OC | -5 | 0.6
21 | CCc1c(C)nc(N)nc1NCc1nc(CCOC)no1 | -14 | 1.79
22 | C[C@@H](C(=O)NCCc1ccc2c(c1)OCCO2)n1cccn1 | -5 | 0.91
23 | COc1cc([C@@H]2c3c(-c4ccc(OCc5ccc(C)cc5)cc4)nn(C)c3C(=O)N2CCc2ccccc2)cc(OC)c1O | 1 | -0.17
24 | CCC[C@H](NC(=O)c1cc2ccccc2o1)c1nnn[nH]1 | -7 | 0.68
25 | COCCC1CCN(C(=O)CN(C)C(=O)c2cccnc2)CC1 | 1 | -0.26
26 | O=C(Cc1c[nH]c2ccccc12)N1CC[C@H](Oc2cccnn2)C1 | -5 | 0.59
27 | Cc1ccc(OCC(=O)N2CCOc3ccc(CN4CCCCC4)cc3C2)cc1 | -5 | 0.51

Row | SMILES | % Inhibition [%] | Z score
28 | C[C@@H](CNC(=O)c1cccs1)NC(=O)c1cccs1 | -7 | 0.77
29 | CCN(C)C(=O)Cn1cnc2c(ncn2-c2ccccc2)c1=O | -3 | 0.55
30 | CCNC(=O)[C@H]1CCN(C(=O)Nc2cc(-c3nnn(C)n3)ccc2C)C1 | 5 | -0.6
31 | CCN1CCN(C(=O)Cn2cnc3nc4c(cc3c2=O)CCCC4)CC1 | -12 | 1.81
32 | CCn1ncnc1-c1c(-c2ccccc2)ncn1[C@@H](C)Cc1cc(C)n[nH]1 | -5 | 0.74
33 | Cc1ccc(C2=C[C@@H](c3cccc4ccccc34)n3nnnc3N2)cc1 | 21 | -2.69
34 | CCCc1ccc(C(=O)OCCOCCNC(=O)C(F)(F)F)cc1 | -3 | 0.3
35 | CC(C)Oc1ccc(C(=O)NCc2cn(-c3cccnc3)nn2)cc1 | -4 | 0.58
36 | C[C@H](NC(=O)c1cnc(C2CC2)nc1O)c1nc(-c2cccnc2)no1 | -9 | 1.31
37 | CN(Cc1nnsc1Cl)C1CCCCCC1 | -2 | 0.24
38 | CCc1ccc(NC(=O)N[C@H]2CCN(C3CCC3)C2=O)cc1F | -1 | 0.21
39 | CCn1cnnc1CCNc1cc([C@H]2CCOC2)ncn1 | 0 | 0.01
40 | CCNS(=O)(=O)C1CON(C)C1c1cccc(Cl)c1Cl (stereo unspecified) | -4 | 0.53
41 | Cc1cc(C)c(NC(=O)CN(C)C(=O)c2ccc3[nH]c4c(c3c2)CCCC4)c(C)c1 | 4 | -0.7
42 | COC(=O)CNC(=O)NCCc1ncc(C)n1C1CCCCCCC1 | -4 | 0.65
43 | COc1ccc(C(=O)N2CCC[C@H](C(=O)Nc3ccc(C)cc3O)C2)c2ccccc12 | -6 | 0.72
44 | Cc1nc(NC(=O)CCc2nc3cccnc3[nH]2)n[nH]1 | -16 | 2.95
45 | Cc1nc([C@@H]2CCCCCN2C(=O)Cc2ccc3c(c2)OCO3)no1 | -2 | 0.43
46 | CC[C@H](C)N(Cc1cc(NC(=O)COC)ccc1N(C)C)C(=O)CC(C)(C)C | -11 | 1.11
47 | CC(NC(=O)CNC(=O)C1O[C@@H]2OC(C)(C)O[C@@H]2[C@H]2OC(C)(C)O[C@@H]12)C(=O)Nc1ccccc1 (stereo partly specified) | -8 | 1.47
48 | CCO[C@H]1COC[C@@H]1NC(=O)c1sc(OC)nc1C | -10 | 2.01
49 | CN1CCC(CN(CCc2ccccc2)C(=O)c2ccc(=O)n(C)n2)CC1 | -7 | 0.83
50 | CN1CCN(c2nc3nccc(-c4ccc5ccccc5c4)c3c(=O)[nH]2)CC1 | -17 | 2.96
51 | O=C(Cn1nc2n(c1=O)C(=O)N(c1ccccc1)C2)NCc1cccnc1 | -1 | 0.19
52 | O=C(NCc1cc2c(cc1OC(F)F)OCO2)Nc1ccsc1Cl | 0 | -0.07
53 | Cc1noc(C)c1[C@@H](C)CC(=O)N1CCc2cccc(F)c21 | -14 | 1.57
